# Experimental data as given in the supplement of paper PMC3334620.
# Over roughly 33,000 sequences, “E-score (-0.5 to 0.5)” has its median near -0.035; the highest 2% begin near 0.34. Some of the results follow.
# Target: T1, Mot3 (UniProt P54785)
# T1 sequence: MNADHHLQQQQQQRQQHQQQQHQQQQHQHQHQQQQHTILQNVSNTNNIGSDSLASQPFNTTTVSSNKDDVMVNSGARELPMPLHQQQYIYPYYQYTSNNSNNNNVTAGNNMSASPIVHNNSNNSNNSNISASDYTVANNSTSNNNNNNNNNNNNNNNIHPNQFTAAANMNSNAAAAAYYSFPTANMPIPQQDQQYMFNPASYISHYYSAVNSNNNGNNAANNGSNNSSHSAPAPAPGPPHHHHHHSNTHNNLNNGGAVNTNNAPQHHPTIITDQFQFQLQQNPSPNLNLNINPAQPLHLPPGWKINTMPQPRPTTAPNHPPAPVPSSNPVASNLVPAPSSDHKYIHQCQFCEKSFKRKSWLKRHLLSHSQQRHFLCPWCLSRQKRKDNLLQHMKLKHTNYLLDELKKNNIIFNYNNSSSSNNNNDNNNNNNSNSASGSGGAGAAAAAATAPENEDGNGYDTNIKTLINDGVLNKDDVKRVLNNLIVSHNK
# Experiment: PBM E-score (8-mer binding enrichment) (E-score (-0.5 to 0.5)); higher = stronger / more preferred TF binding; most listed sequences are background and not binding sites
# Conditions: protein concentration: 200 nM; construct: GST-full length
# Method in brief: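 GST-tagged yeast TFs (full-length or DNA-binding domain) were made by PURExpress in vitro transcription/translation and applied at about 100-200 nM to universal all-10-mer Agilent arrays. The arrays were made double-stranded by primer extension, on fresh or once-stripped slides. Bound protein was detected with fluorescent anti-GST, and scans were normalised with masliner. Each ungapped eight-base word, pooled with its reverse complement, received an E-score (modified Wilcoxon-Mann-Whitney statistic) from the Universal PBM Analysis Suite.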
row,Sequence,PBM E-score
1,CAGAACAA,0.206
2,CCTCGAGC,0.0444
3,AGCGAACT,0.0821
4,GACATATC,0.091
5,AGCCAACG,0.0732
6,ATAAGGTC,-0.0271
7,AGTACTTA,0.057
8,ACGGGATA,-0.0833
9,CCCAGGAG,-0.207
10,CCAGGGCA,-0.0531
11,GACCGTCA,-0.286
12,GCATGACC,-0.071
13,AGTTAACA,0.279
14,GTAAACAC,0.334
15,CACTTTCA,-0.069
16,AGTACCTA,0.342
17,TATGAATA,0.0344
18,ATAGGGCA,0.0327
19,CCATACCG,-0.112
20,AACAGCAT,0.133
21,ATGTATGA,0.123
22,GCACTCTA,-0.17
23,CCCATTGA,-0.138
24,GCCATCAC,-0.167
25,AACGAGTT,0.117

row,Sequence,PBM E-score
1,CAACTAAA,0.187
2,CAAGTAAC,0.193
3,CGAGGCTA,-0.161
4,CCCAGAAG,-0.0314
5,CAACCAGA,0.0325
6,AGCCTTGG,0.0812
7,AAGTGTCC,-0.11
8,AGAATACT,-0.00299
9,AACTAGTA,0.145
10,GATAAACA,0.106
11,CGGATCAG,-0.0263
12,ACATAGGG,0.2
13,GCTTTACA,0.325
14,GGCAACTA,0.246
15,ACGGGTAT,0.0437
16,CAACATCG,0.119
17,AGTCAAAC,-0.126
18,GCAAACAA,0.184
19,ACGTTTAA,0.27
20,ATCTTTGC,0.0607
21,CAACGTTG,0.211
22,GGCGTCCA,-0.133
23,CTCGTTAA,0.157
24,AATTCGGA,-0.188
25,GGTCTGGA,-0.313

row,Sequence,PBM E-score
1,ACGAGCTA,0.0171
2,GAAATCCC,-0.237
3,ATGTTAAG,0.37
4,TACTCATA,-0.0621
5,CCTAAAAC,0.167
6,ATCGCCAC,-0.158
7,AGGATTAC,0.256
8,CTTCCACA,-0.14
9,GCCATAAC,-0.231
10,AAGCGCAC,0.0359
11,CAGGCGCC,0.326
12,GGACACCA,-0.23
13,GAGCACTC,-0.0925
14,CTTGATAC,0.00505
15,GTAACCTA,0.261
16,GCTCCAAC,-0.0258
17,AACATCTC,0.0667
18,TGAAAGCA,0.117
19,CTGAGCCA,-0.259
20,ACGATCAG,-0.0275
21,GGCGTCAC,-0.219
22,GGGCCCTA,-0.193
23,AACGAAAC,0.0731
24,AAACTTTG,-0.0577
25,CTGTACAG,0.187

row,Sequence,PBM E-score
1,AGGATCCT,0.151
2,CTTTGGGA,-0.192
3,CGCCTCTA,-0.0742
4,CCGACAGA,-0.191
5,GCAACAAA,0.171
6,CGAAGCTA,-0.115
7,ATGCTTGC,-0.145
8,ACATTACG,0.271
9,CCCCACAA,-0.0534
10,GGCTAGAA,-0.0164
11,ACGCCCCT,0.0443
12,AGAGGCGC,-0.241
13,ACGACCAC,0.0698
14,AGAGTGAA,0.0663
15,AGCGGATA,-0.203
16,ATCGGGGA,0.0758
17,CGGCTCTC,-0.273
18,GAGCTCAA,-0.0104
19,CGGCGCCC,-0.187
20,ACCAAGAG,-0.0994
21,GGAATACA,0.327
22,ACGTTCCT,0.447
23,CTAACAAG,0.172
24,ACATATCG,0.0603
25,CGCACCTA,-0.125

row,Sequence,PBM E-score
1,TACCCGAA,-0.0457
2,CGTACTTC,-0.0947
3,ATAGGCAG,0.234
4,ACAACAGA,0.21
5,GAGGTTCA,-0.101
6,AACCCCCA,-0.161
7,CATTTCTC,-0.112
8,GCACTGCC,-0.0418
9,TGAGAAAA,0.0662
10,GCGGCTCA,-0.235
11,ATGTGGTG,0.127
12,CGTTATAG,0.185
13,CAGCGGCC,-0.25
14,AAACCGAT,-0.0323
15,CCACGTAG,-0.141
16,CGTTAAAG,0.195
17,CGTGCTTC,0.0855
18,TCGTGTCA,0.322
19,ACTGATTA,0.234
20,ACGTTAAA,0.3
21,AAACTATG,0.0201
22,CCCTGCGC,-0.256
23,GAGACTGC,-0.2
24,GCGCTTCA,-0.201
25,AAGGGGCG,-0.277

row,Sequence,PBM E-score
1,AAGACCAA,-0.0867
2,AGCCCAGA,-0.309
3,CCTAGCCG,-0.154
4,CTAAAAAC,0.0914
5,GCGCGTCC,-0.229
6,AACTTATC,-0.0591
7,ATCACCCC,-0.203
8,ATTGAGGG,-0.0877
9,TCTTTAAA,0.0621
10,AGGGTTTA,0.144
11,ATATCTAG,-0.0915
12,CTTCGTTA,-0.052
13,CAGGTTAG,-0.181
14,AGACTCAC,-0.27
15,CCGCTCCC,-0.342
16,ATAAGTAT,-0.0758
17,CGACACCA,-0.178
18,CGCGTAAG,0.299
19,ATTCGCCG,0.0375
20,CAATTATC,-0.0463
21,GTAGCGAA,-0.203
22,CAGCGCCA,-0.183
23,AAACATAG,0.206
24,ACTTCTAG,-0.0597
25,TGACCACA,0.0383

row,Sequence,PBM E-score
1,GGCCGGCA,-0.107
2,CGCACTCA,-0.129
3,CGATAGAG,-0.105
4,ATTCCAAA,0.00803
5,ACAATAGA,0.201
6,GCCAGTAA,-0.175
7,ACATGTTC,0.295
8,ATTGGGGG,-0.253
9,AGCCGTAG,-0.182
10,CCATTGTC,-0.182
11,AAGTGCGG,-0.0843
12,CCTATCGA,0.0654
13,CGGCCGCC,-0.271
14,AATTGTGC,-0.0647
15,GATGCCAA,-0.148
16,CCACGACG,-0.101
17,CGTGCTCA,0.111
18,TAATAGGA,0.27
19,GCGTACGA,-0.00052
20,ACTTTATG,-0.03
21,CGTCTAGA,-0.2
22,CTCCCACC,-0.37
23,CGTCAGGC,0.0152
24,GAGGCCGA,-0.231
25,CAAACGTG,0.0815

row,Sequence,PBM E-score
1,AACGTCGA,0.0921
2,GGCCGGAA,-0.235
3,CACAATAG,0.232
4,TAGCATAA,-0.0194
5,CTCGCTTC,-0.316
6,ACGGTAGC,0.00401
7,GGCGCAGA,-0.12
8,CTACAACC,0.0524
9,ACATATGG,0.0959
10,ATCCCCCA,-0.376
11,AATTACGT,0.335
12,ATGTGATA,0.107
13,ACGAGCGC,-0.135
14,AATTTGGC,0.0722
15,ACTGGAAG,-0.0411
16,GCCTAAGC,0.0733
17,GAACGCCC,-0.186
18,GACCGTAA,-0.265
19,AGACGGAC,-0.211
20,AAGACGGG,-0.286
21,AAATCTTG,0.0451
22,TAGGACTA,-0.0289
23,CAGCTCTC,-0.0994
24,GCATTACC,0.0719
25,CAGCAGTA,-0.0168

row,Sequence,PBM E-score
1,AACCTGGT,-0.0323
2,ACCAGGAA,0.187
3,ACACCCCT,0.0768
4,ACTAGCCT,-0.129
5,CTTTGTCC,-0.113
6,CAGCTCAC,-0.112
7,CAATCTGA,-0.145
8,CCCGCCCA,-0.13
9,ACCCCGCC,-0.141
10,ACCAACAG,-0.133
11,CTCCATGC,-0.0612
12,AAATGCTT,-0.0919
13,AATCCGCC,-0.225
14,CCGATCGG,-0.104
15,GTTCGGAA,-0.14
16,GGCTAGGA,-0.0993
17,ACGGATGA,-0.0966
18,TCAGCACA,0.118
19,ATCCAGAT,-0.209
